The whole screen tested about 52,000 compounds, of which about 4,300 (8.3%) were called active. Cut-off read from the data, not from the text of the source: active = survival mostly below about 52% (no sharp cut-off); inactive = mostly above about 56%. Some of the results follow.

This experiment deals with DeltatarO mutant. Nature of the experiment: S. aureus survival, RN4220 and DeltatarO strains – OD600, teichoic acid synthesis inhibitors, primary screen (AID 463173). To be noted: S. aureus RN4220 wild type/DeltatarO growth, OD600, 18 h, stronger effect = lower value, screened at 18.75 µg/mL (by protocol).
On to `O=C(c1ccccc1Br)N(Cc1ccccc1F)C1CCS(=O)(=O)C1` (stereo not given), for which the survival is inactive: 110%. In the case of `CCC(C)NC(=O)CSCc1nc(-c2ccc(C)cc2)oc1C` (stereo not given), the survival was inactive: 81%.

As to `CN1CCN(C(=O)c2ccc3c(c2)N(Cc2ccc(Cl)cc2)C(=O)c2ccccc2S3(=O)=O)CC1`, the survival was inactive: 78%. Then `Cc1cccc(CC(=O)NCCc2sc3nc(-c4ccc(F)cc4)nn3c2C)c1`, with inactive: 91%; and `c1ccc2c(c1)[nH]c1nc(NN=C3CCC(=NNc4nnc5c(n4)[nH]c4ccccc45)CC3)nnc12`, with inactive: 93%; and `CN(C)CC(O)C1CCOC(C)(C)C1` (stereo not given), with inactive: 101%. Then `CCOc1ccc(CCNC(=O)c2ccc(-c3nc(CSc4ccccc4)c(C)o3)cc2)cc1`, with inactive: 85%. Then `CCc1ccc(N(CC)C(=O)c2sc3nc4n(c(=O)c3c2C)CCCC4)cc1`, with inactive: 63%. In the case of `CCN(CC)c1ccc(CNS(=O)(=O)c2cc3c(cc2C)NC(=O)CO3)cc1`, the survival was inactive: 69%. Then `Nc1ccc2c(c1)C(=O)N(CCCCN1C(=O)c3ccc(N)cc3C1=O)C2=O`, with inactive: 87%. Consider `COc1ccc(NC(=O)CSc2ncc3c(n2)-c2ccccc2N(C)S3(=O)=O)cc1Cl`, for which the survival is inactive: 103%.

On to `Cn1c(SCc2ccccc2Cl)nc(=O)c2c1NC(=O)CC2c1cc(F)ccc1F` (stereo not given), for which the survival is inactive: 45%.

For the compound `CCOc1ccc(NC(=O)Nc2c[nH]c(=O)[nH]c2=O)cc1`, the survival was inactive: 93%.

For `CCOc1ccc(C(=O)NCCc2sc(-c3ccc(F)cc3)nc2C)cc1`, the survival is inactive: 90%. Then `COc1ccc(Nc2ncc(C(=O)N3CCN(c4ccccc4OC)CC3)c3ccccc23)cc1`, with inactive: 62%. Then `CCOC(=O)c1ccc(NC(=O)CN2C(=O)c3cccnc3Sc3ccccc32)cc1`, with inactive: 84%. Take `O=C(Cn1ncc2c3ccccc3n(Cc3cccc(Cl)c3)c2c1=O)NCCC1=CCCCC1`: the survival was inactive: 90%. `Cc1ccccc1Cn1c(=O)n(CCCCCC(=O)NCc2ccc3c(c2)OCO3)c(=O)c2sccc21`: the survival was inactive: 101%. Then `Cc1ccc(S(=O)(=O)Cn2nnnc2C(C(C)C)N2CCSCC2)cc1` (stereo not given), with inactive: 90%; and `Cc1nccn1S(=O)(=O)c1c(C(C)C)cc(C(C)C)cc1C(C)C`, with inactive: 86%; and `CC(C)Sc1nc2sc3c(c2c(=O)n1-c1ccccc1)CCCC3`, with active: -3%. Then `CC(=O)c1ccc(N2C(=O)Nc3ccccc3S2(=O)=O)cc1`, with inactive: 115%.

As to `Cc1ccc(N2CC(NC(=O)c3ccccc3Br)CC2=O)cc1` (stereo not given), the survival was inactive: 95%.

`O=C(Nc1ccc(F)c(Cl)c1)C1CCN(S(=O)(=O)c2ccc3c(c2)CCCN3C(=O)C2CCC2)CC1`: the survival was inactive: 94%.

Consider `Cc1ccc(CSc2cn(CCNC(=O)c3cccs3)c3ccccc23)cc1`, for which the survival was inactive: 58%.

Values taken from PubChem BioAssay AID463173 (ICCB-Longwood Screening Facility, Harvard Medical School, 2010).
